# From article PMC9054013 (2022)
# Molecular target: SGIP C block (UniProt Q9BQI5)
# Assay: ITC
binder,measurement,value
AP2 α-appendage ([…]) (domain or fragment) not shown,Kd,111 µM
